Measured values taken from the supplement of paper PMC10037445.
In all, about 2,900 compounds were measured (“NF-kB SEAP reporter activity, fold change vs agonist alone”: median about 0.99, highest 2% from about 2.6 on). The list shows a part of the results.

Assays:
RAW-Dual [1] = test: NF-kB SEAP reporter activity, fold change vs agonist alone; cytotoxicity flag (confluency mask): cytotoxic (confluency <70% of control); higher = enhanced NF-kB activity
Procedure, shortened: (§1)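 RAW-Dual macrophages (50,000 cells/well in DMEM, 384-well plates) received 50 nL of library stock by pin tool, then a PRR agonist 1 h later, and were kept at 37 °C, 5% CO2. After 20 hours, supernatant was read for IRF by QuantiLuc luminescence and for NF-κB by QuantiBlue absorbance at 620 nm. Reporter activity is fold change over agonist-alone wells. Cytotoxic wells had IncuCyte confluency below 70% of agonist controls in both mask sets.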

RAW-Dual [2] = test: NF-kB SEAP reporter activity, fold change vs agonist alone; higher = enhanced NF-kB activity; conditions: library stock concentration (final ~1000-fold dilution): 10 mM
Procedure, shortened: as §1

RAW-Dual [3] = test: NF-kB SEAP reporter activity, fold change vs agonist alone; cytotoxicity flag (confluency mask): not cytotoxic; higher = enhanced NF-kB activity
Procedure, shortened: as §1

[4] = agonist: ODN 1826 (TLR9) 0.5 ug/mL
[5] = agonist: Pam2CSK4 (TLR2/6) 0.1 ug/mL
[6] = agonist: Pam3CSK4 (TLR2/1) 0.1 ug/mL
[7] = cytotoxicity flag (confluency mask): cytotoxic (confluency <70% of control), agonist: Imiquimod (TLR7) […]
[8] = cytotoxicity flag (confluency mask): cytotoxic (confluency <70% of control), agonist: MPLA (TLR4) […]
[9] = cytotoxicity flag (confluency mask): not cytotoxic, agonist: Imiquimod (TLR7) […]
[10] = cytotoxicity flag (confluency mask): not cytotoxic, agonist: MPLA (TLR4) […]

Compound: CC(C)[C@]12O[C@H]1[C@@H]1O[C@]13[C@]1(O[C@H]1C[C@H]1C4=C(CC[C@@]13C)C(=O)OC4)[C@@H]2O (library stock concentration (final ~1000-fold dilution): 10 mM)
- NF-kB SEAP reporter activity (RAW-Dual [1]; agonist: LPS (TLR4) 0.1 ug/mL): 0.276
- NF-kB SEAP reporter activity (RAW-Dual [1]; [4]): 0.21
- NF-kB SEAP reporter activity (RAW-Dual [1]; [5]): 0.0742
- NF-kB SEAP reporter activity (RAW-Dual [1]; [6]): 0.169

Compound: CC(C)[C@]12O[C@H]1[C@@H]1O[C@]13[C@]1(O[C@H]1C[C@H]1C4=C(CC[C@@]13C)C(=O)OC4)[C@@H]2O
- NF-kB SEAP reporter activity (RAW-Dual [2]; [7]): 0.145
- NF-kB SEAP reporter activity (RAW-Dual [2]; [8]): 0.263

Compound: COc1cc2c(c(OC)c1OC)-c1ccc(OC)c(=O)cc1C(NC(C)=O)CC2 (stereo not given)
- NF-kB SEAP reporter activity (RAW-Dual [2]; [9]): 2.62
- NF-kB SEAP reporter activity (RAW-Dual [2]; [10]): 1.98

Compound: COc1cc2c(c(OC)c1OC)-c1ccc(OC)c(=O)cc1C(NC(C)=O)CC2 (stereo not given) (library stock concentration (final ~1000-fold dilution): 10 mM)
- NF-kB SEAP reporter activity (RAW-Dual [3]; agonist: LPS (TLR4) 0.1 ug/mL): 4.93
- NF-kB SEAP reporter activity (RAW-Dual [3]; [4]): 3.47
- NF-kB SEAP reporter activity (RAW-Dual [3]; [5]): 2.44
- NF-kB SEAP reporter activity (RAW-Dual [3]; [6]): 2.52

Compound: CC(C)(C)c1cc(C=C(C#N)C#N)cc(Br)c1O
- NF-kB SEAP reporter activity (RAW-Dual [2]; [7]): 2.04
- NF-kB SEAP reporter activity (RAW-Dual [2]; [8]): 2.25

Compound: CC(C)(C)c1cc(C=C(C#N)C#N)cc(Br)c1O (library stock concentration (final ~1000-fold dilution): 10 mM)
- NF-kB SEAP reporter activity (RAW-Dual [1]; agonist: LPS (TLR4) 0.1 ug/mL): 2.48
- NF-kB SEAP reporter activity (RAW-Dual [1]; [4]): 1.29
- NF-kB SEAP reporter activity (RAW-Dual [1]; [5]): 0.571
- NF-kB SEAP reporter activity (RAW-Dual [1]; [6]): 0.667

Compound: O=C(c1ccccc1O)c1[nH]c(Cl)c(Cl)c1-n1c(C(=O)c2ccccc2O)cc(Cl)c1Cl (library stock concentration (final ~1000-fold dilution): 10 mM)
- NF-kB SEAP reporter activity (RAW-Dual [1]; agonist: LPS (TLR4) 0.1 ug/mL): 0.156
- NF-kB SEAP reporter activity (RAW-Dual [1]; [4]): 0.169
- NF-kB SEAP reporter activity (RAW-Dual [1]; [5]): 0.0629
- NF-kB SEAP reporter activity (RAW-Dual [1]; [6]): 0.113

Compound: O=C(c1ccccc1O)c1[nH]c(Cl)c(Cl)c1-n1c(C(=O)c2ccccc2O)cc(Cl)c1Cl
- NF-kB SEAP reporter activity (RAW-Dual [2]; [7]): 0.224
- NF-kB SEAP reporter activity (RAW-Dual [2]; [8]): 0.3

Compound: CC(C)=CCCC1(C)C=Cc2c(O)c3c(c(CC=C(C)C)c2O1)OC12C(=CC4CC1C(C)(C)OC2(C/C=C(/C)C(=O)O)C4=O)C3=O (stereo not given)
- NF-kB SEAP reporter activity (RAW-Dual [2]; [9]): 0.882
- NF-kB SEAP reporter activity (RAW-Dual [2]; [10]): 1.02

Compound: CC(C)=CCCC1(C)C=Cc2c(O)c3c(c(CC=C(C)C)c2O1)OC12C(=CC4CC1C(C)(C)OC2(C/C=C(/C)C(=O)O)C4=O)C3=O (stereo not given) (library stock concentration (final ~1000-fold dilution): 10 mM)
- NF-kB SEAP reporter activity (RAW-Dual [3]; agonist: LPS (TLR4) 0.1 ug/mL): 0.196
- NF-kB SEAP reporter activity (RAW-Dual [3]; [4]): 0.942
- NF-kB SEAP reporter activity (RAW-Dual [3]; [5]): 0.45
- NF-kB SEAP reporter activity (RAW-Dual [3]; [6]): 0.493

Compound: O=C(O)C(=O)c1cn(Cc2ccccc2)c2ccc(-c3ccc(OC(F)(F)F)cc3)cc12 (library stock concentration (final ~1000-fold dilution): 10 mM)
- NF-kB SEAP reporter activity (RAW-Dual [3]; agonist: LPS (TLR4) 0.1 ug/mL): 1.12
- NF-kB SEAP reporter activity (RAW-Dual [3]; [4]): 0.948
- NF-kB SEAP reporter activity (RAW-Dual [3]; [5]): 0.917
- NF-kB SEAP reporter activity (RAW-Dual [3]; [6]): 0.841

Compound: O=C(O)C(=O)c1cn(Cc2ccccc2)c2ccc(-c3ccc(OC(F)(F)F)cc3)cc12
- NF-kB SEAP reporter activity (RAW-Dual [2]; [9]): 0.977
- NF-kB SEAP reporter activity (RAW-Dual [2]; [10]): 1.04

Compound: CC12CCC3C(CCC45OC4C(O)=C(C#N)CC35C)C1CCC2O (stereo not given) (library stock concentration (final ~1000-fold dilution): 10 mM)
- NF-kB SEAP reporter activity (RAW-Dual [3]; agonist: LPS (TLR4) 0.1 ug/mL): 0.913
- NF-kB SEAP reporter activity (RAW-Dual [3]; [4]): 0.786
- NF-kB SEAP reporter activity (RAW-Dual [3]; [5]): 0.677
- NF-kB SEAP reporter activity (RAW-Dual [3]; [6]): 1.11

Compound: CC12CCC3C(CCC45OC4C(O)=C(C#N)CC35C)C1CCC2O (stereo not given)
- NF-kB SEAP reporter activity (RAW-Dual [2]; [9]): 0.843
- NF-kB SEAP reporter activity (RAW-Dual [2]; [10]): 0.861

Compound: c1ccc2c(c1)Nc1ccccc1S2 (library stock concentration (final ~1000-fold dilution): 10 mM)
- NF-kB SEAP reporter activity (RAW-Dual [3]; agonist: LPS (TLR4) 0.1 ug/mL): 1.08
- NF-kB SEAP reporter activity (RAW-Dual [3]; [4]): 0.935
- NF-kB SEAP reporter activity (RAW-Dual [3]; [5]): 0.808
- NF-kB SEAP reporter activity (RAW-Dual [3]; [6]): 1.03

Compound: c1ccc2c(c1)Nc1ccccc1S2
- NF-kB SEAP reporter activity (RAW-Dual [2]; [9]): 0.939
- NF-kB SEAP reporter activity (RAW-Dual [2]; [10]): 1.04

Compound: O=c1c2ccccc2[se]n1-c1ccccc1 (library stock concentration (final ~1000-fold dilution): 10 mM)
- NF-kB SEAP reporter activity (RAW-Dual [3]; agonist: LPS (TLR4) 0.1 ug/mL): 0.445
- NF-kB SEAP reporter activity (RAW-Dual [3]; [4]): 0.277
- NF-kB SEAP reporter activity (RAW-Dual [3]; [5]): 0.249
- NF-kB SEAP reporter activity (RAW-Dual [3]; [6]): 0.46

Compound: O=c1c2ccccc2[se]n1-c1ccccc1
- NF-kB SEAP reporter activity (RAW-Dual [2]; [9]): 0.298
- NF-kB SEAP reporter activity (RAW-Dual [2]; [10]): 0.545

Compound: CCNc1nc(Cl)nc(NC(C)C)n1 (library stock concentration (final ~1000-fold dilution): 10 mM)
- NF-kB SEAP reporter activity (RAW-Dual [3]; agonist: LPS (TLR4) 0.1 ug/mL): 1.55
- NF-kB SEAP reporter activity (RAW-Dual [3]; [4]): 1.4
- NF-kB SEAP reporter activity (RAW-Dual [3]; [5]): 1.5
- NF-kB SEAP reporter activity (RAW-Dual [3]; [6]): 1.67

Compound: CCNc1nc(Cl)nc(NC(C)C)n1
- NF-kB SEAP reporter activity (RAW-Dual [2]; [10]): 1.29

Compound: CCNC(=O)CC1N=C(c2ccc(Cl)cc2)c2cc(OC)ccc2-n2c(C)nnc21 (stereo not given) (library stock concentration (final ~1000-fold dilution): 10 mM)
- NF-kB SEAP reporter activity (RAW-Dual [3]; agonist: LPS (TLR4) 0.1 ug/mL): 2.57
- NF-kB SEAP reporter activity (RAW-Dual [3]; [4]): 1.9
- NF-kB SEAP reporter activity (RAW-Dual [3]; [5]): 0.886
- NF-kB SEAP reporter activity (RAW-Dual [3]; [6]): 1.43

Compound: CCNC(=O)CC1N=C(c2ccc(Cl)cc2)c2cc(OC)ccc2-n2c(C)nnc21 (stereo not given)
- NF-kB SEAP reporter activity (RAW-Dual [2]; [9]): 1.41
- NF-kB SEAP reporter activity (RAW-Dual [2]; [10]): 2.47

Compound: O=C(O)C(=O)CBr
- NF-kB SEAP reporter activity (RAW-Dual [2]; [10]): 1.06

Compound: O=C(O)C(=O)CBr (library stock concentration (final ~1000-fold dilution): 10 mM)
- NF-kB SEAP reporter activity (RAW-Dual [3]; agonist: LPS (TLR4) 0.1 ug/mL): 0.991
- NF-kB SEAP reporter activity (RAW-Dual [3]; [4]): 0.962
- NF-kB SEAP reporter activity (RAW-Dual [3]; [5]): 1.07
- NF-kB SEAP reporter activity (RAW-Dual [3]; [6]): 1.06

Compound: Cl[Te]1(Cl)(Cl)OCCO1.N (library stock concentration (final ~1000-fold dilution): 10 mM)
- NF-kB SEAP reporter activity (RAW-Dual [3]; agonist: LPS (TLR4) 0.1 ug/mL): 1.39
- NF-kB SEAP reporter activity (RAW-Dual [3]; [4]): 0.846
- NF-kB SEAP reporter activity (RAW-Dual [3]; [5]): 0.912
- NF-kB SEAP reporter activity (RAW-Dual [3]; [6]): 1.28

Compound: Cl[Te]1(Cl)(Cl)OCCO1.N
- NF-kB SEAP reporter activity (RAW-Dual [2]; [9]): 0.792
- NF-kB SEAP reporter activity (RAW-Dual [2]; [10]): 0.899

Compound: CN1C2CCC1CC(OC(=O)C(CO)c1ccccc1)C2.CN1C2CCC1CC(OC(=O)C(CO)c1ccccc1)C2.O=S(=O)(O)O (stereo not given) (library stock concentration (final ~1000-fold dilution): 10 mM)
- NF-kB SEAP reporter activity (RAW-Dual [3]; agonist: LPS (TLR4) 0.1 ug/mL): 0.97
- NF-kB SEAP reporter activity (RAW-Dual [3]; [4]): 0.888
- NF-kB SEAP reporter activity (RAW-Dual [3]; [5]): 1.02
- NF-kB SEAP reporter activity (RAW-Dual [3]; [6]): 0.925
